Test results published in PMC4336329 (PLoS ONE, 2015).
Screen size: about 310,000 compounds; about 2,200 (0.71%) showed an effect of 50% or more. The effect is printed as a negative number. The list shows a part of the results.

target: human ether-à-go-go-related gene (hERG) potassium channel (human, UniProt Q12809); assay: primary screen, population patch clamp on CHO cells stably expressing hERG
Sequence (Q12809 whole entry, looked up): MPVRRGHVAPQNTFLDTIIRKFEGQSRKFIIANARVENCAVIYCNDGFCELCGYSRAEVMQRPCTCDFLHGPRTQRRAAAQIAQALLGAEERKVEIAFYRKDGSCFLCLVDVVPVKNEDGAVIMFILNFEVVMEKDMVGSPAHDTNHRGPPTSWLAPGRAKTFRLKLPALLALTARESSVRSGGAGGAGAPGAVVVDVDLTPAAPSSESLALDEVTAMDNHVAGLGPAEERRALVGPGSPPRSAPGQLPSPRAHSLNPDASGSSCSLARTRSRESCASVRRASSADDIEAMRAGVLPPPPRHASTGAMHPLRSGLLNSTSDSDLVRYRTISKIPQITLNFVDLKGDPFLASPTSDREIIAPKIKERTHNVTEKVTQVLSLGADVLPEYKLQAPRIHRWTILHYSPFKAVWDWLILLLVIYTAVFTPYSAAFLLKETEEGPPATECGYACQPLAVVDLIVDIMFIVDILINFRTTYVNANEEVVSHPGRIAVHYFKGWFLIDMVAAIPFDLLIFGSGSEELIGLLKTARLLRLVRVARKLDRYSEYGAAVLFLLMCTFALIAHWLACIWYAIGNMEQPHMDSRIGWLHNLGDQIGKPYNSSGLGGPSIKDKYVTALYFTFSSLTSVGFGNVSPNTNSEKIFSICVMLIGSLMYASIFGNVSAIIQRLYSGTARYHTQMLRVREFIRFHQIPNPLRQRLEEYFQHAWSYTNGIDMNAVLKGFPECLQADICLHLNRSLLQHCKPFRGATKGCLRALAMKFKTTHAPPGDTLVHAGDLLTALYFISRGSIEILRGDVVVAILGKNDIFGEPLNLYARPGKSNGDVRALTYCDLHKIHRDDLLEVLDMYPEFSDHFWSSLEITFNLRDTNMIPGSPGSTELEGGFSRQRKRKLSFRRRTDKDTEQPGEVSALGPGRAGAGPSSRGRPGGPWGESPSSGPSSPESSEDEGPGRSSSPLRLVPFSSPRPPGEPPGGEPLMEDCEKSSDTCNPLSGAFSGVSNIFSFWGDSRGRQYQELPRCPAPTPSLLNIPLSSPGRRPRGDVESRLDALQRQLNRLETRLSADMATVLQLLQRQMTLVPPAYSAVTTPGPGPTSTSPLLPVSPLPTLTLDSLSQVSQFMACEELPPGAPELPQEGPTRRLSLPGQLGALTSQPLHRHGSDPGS

SMILES | hERG current change (%, negative = inhibition) at 1uM [%]
O=C(Nc1ccc(F)c(Cl)c1)Nn1cnnc1 | 0.762
Cc1cc(C)nc(SCC(=O)OC(C)C(=O)Nc2ccccc2)n1 (centres unmarked) | 14
Clc1ccc(-n2ncc3c(NCCN4CCOCC4)ncnc32)cc1 | -5.98
CN1C2C=C3C(C#N)=C(N)C(C#N)(C#N)[C@H](c4c(F)cccc4F)[C@H]3C1CC2 (some centres unmarked) | -3.18
CNC(=O)c1c(I)c(C(=O)NCC(=O)Nc2c(I)c(C(=O)O)c(I)c(C(=O)NCCO)c2I)c(I)c(N(C)C(C)=O)c1I | 12.5
c1ccc2cc(-c3cc4ccccn4c3)ccc2c1 | 8.28
Cn1c(NCCO)nc2c(c1=O)C1(CCCCC1)Cc1ccccc1-2 | 8.03
CSc1nc(Cc2ccccc2)nc2ccccc12 | 18.9
O=C(COc1ccc2ccccc2c1)NNC(=O)c1cnccn1 | 0.23
CCCOc1ccc(/C=N\NC(=O)CCc2n[nH]c(=O)[nH]c2=O)cc1OC | 11.6
COc1cc(C(=O)NCCNC(=O)C2CCCNC2=O)cc(OC)c1OC (centres unmarked) | 6.08
O=C(NN1C(=O)c2ccccc2NC1c1ccoc1)c1ccccc1 (centres unmarked) | 6.28
Cc1nc(C)c2c(=O)cc(-c3ccccc3)[nH]c2n1 | -13.6
O=C(CN(c1ccccc1)S(=O)(=O)c1ccccc1[N+](=O)[O-])Nc1ccccc1C(=O)N1CCOCC1 | 16.6
Cc1ccc(Cn2c(=O)c3c(nc4n3CCCN4Cc3ccccc3)n(C)c2=O)cc1 | 10.5
O=C(NC(=S)Nc1ccc(N2CCCCC2)cc1)c1ccc2c(c1)OCCO2 | 6.31
O=S1(=O)CCC(NC(=S)SCCOc2ccccc2)C1 (centres unmarked) | 9.17
COc1ccccc1N1CCN(C(=O)c2n[nH]c3ccccc23)CC1 | 15.7
Cn1nc(-c2ccc(C(=O)NCC3CCCO3)cc2)c2ccccc2c1=O (centres unmarked) | -2.8
O=C(Cn1cnc2ccccc2c1=O)Nc1ccc2c(c1)OCCO2 | -11.6
O=C(O)CS(=O)CC(=O)NCc1cccc(C(F)(F)F)c1 (centres unmarked) | 12.6
CCCCn1nc(C(=O)Nc2ccc(S(=O)(=O)Nc3ncccn3)cc2)c2ccccc2c1=O | 0.671
O=C(NC1CCCC1)C1CCN(C(=O)c2ccc(Cl)cc2)CC1 | 15.1

SMILES | hERG current change (%, negative = inhibition) at 1uM [%]
Cl.c1ccc(-c2ccccc2OCCOCCN2CCc3ccccc3C2)cc1 | 14.1
COc1ccc(CCN2C(=O)CCC2(C)C(=O)NC2CCCC2)cc1OC (centres unmarked) | 13.3
CC(=O)NS(=O)(=O)c1ccc(NC(=O)c2ccc(Br)o2)cc1 | 9.43
COc1ccc(CCNC(=O)c2cnn3cccnc23)cc1OC | 6.54
Cc1cc(NC(=O)c2ccc(Cl)cc2)n(CCOC(=O)c2ccc(Cl)cc2)n1 | 5.06
CCC1Sc2ccc(S(=O)(=O)CCC(=O)NCc3ccc(C)o3)cc2NC1=O (centres unmarked) | 17.4
Cc1ccc(Cl)cc1NC(=O)C1C2CCC(O2)C1C(=O)O (centres unmarked) | 19.5
O=S(=O)(Nc1ncnc2sc3c(c12)CCC3)c1cc(F)ccc1F | 0.24
Cc1nc2ccccn2c1C(=O)N/N=C/c1ccc([N+](=O)[O-])cc1 | 6.81
O=C(O)C1CC1C(=O)Nc1cc(F)ccc1F (centres unmarked) | 7.57
O=C(NCc1cc2ccccc2[nH]1)c1ccccc1F | 17.4
CCOc1ccc(S(=O)(=O)Nc2cccc(C(=O)NCCCN3CCOCC3)c2)cc1 | 1.71
COc1cccc(CN2CCN(S(=O)(=O)c3ccc(Br)cc3)CC2)c1 | -4.03
O=C(NCC1CCCO1)C(=O)N/N=C/c1ccccc1C(=O)O (centres unmarked) | 17.1
COC(=O)c1cc(S(=O)(=O)n2nc(C)c(Br)c2C)c(Cl)cc1Cl | 10.1
Cc1ccc(S(=O)(=O)N(C)CCCC(=O)Nc2ccc(F)cc2)cc1 | 3.19
Cc1cc(/C=C2/NC(=O)N(Cc3ccccc3F)C2=O)c(C)n1C | 4.99
Cc1nc(SCc2c(Cl)cccc2Cl)nc(OC(=O)N(C)C)c1C | 15.3
COc1ccc(NC(=O)CCn2c(=S)[nH]c3ccccc3c2=O)cc1OC | 17.6
CC1CN(C(=S)Nc2ccc(Br)cc2Cl)CC(C)O1 (centres unmarked) | 0.599
O=C(CSc1nc2ccccc2s1)c1cc2ccccc2o1 | -4.81
COc1ccc(/C=C2\SC(=O)N(CCNC(=O)CN3C(=O)NC4(CCCC4)C3=O)C2=O)cc1 | 5.33
Cc1ccc2nc(SCC(=O)N(CC(C)C)c3c(N)n(CC(C)C)c(=O)[nH]c3=O)[nH]c2c1 | 12.2

SMILES | hERG current change (%, negative = inhibition) at 1uM [%]
COc1ccc(C(=O)NCC(=O)N=Nc2c(O)n(Cc3ccccc3)c3ccccc23)cc1OC | 4.7
c1ccc2c(N3CCCCC3)nc(N3CCCC3)nc2c1 | -64.6
CC1CC(C)CN(CCCNC(=O)C2CCCN(c3ncnc4c3nc3n4CCCCC3)C2)C1 (centres unmarked) | 0.841
CN(CCC#N)C(=O)COC(=O)c1ccc2c(c1)C(=O)N(C1CCCCC1)C2=O | 14.1
CC(NC(=O)c1cc(-c2cccnc2)nc2ccc(Br)cc12)C1CCCO1 (centres unmarked) | 7.77
CC(Sc1nc2ccccc2[nH]1)C(=O)Nc1ccccc1F (centres unmarked) | 11.6
COc1ccc(C(=O)Nc2ccc(C(=O)Nc3cccc(C)c3)cc2)cc1 | 17.1
Cc1noc(COc2ccccc2OCC(N)=O)c1Cl | 4.47
COc1cccc(C(=O)N/N=C/c2ccc(OC)c(COc3ccccc3C(N)=O)c2)c1 | 11.9
Cc1c(NC(=S)N/N=C/c2cccc(O)c2)c(=O)n(-c2ccccc2)n1C | 3.54
Cc1cc(C)c2oc(=O)cc(CN3CCN(Cc4ccccc4)CC3)c2c1 | 8.59
N#Cc1c(=O)c2nc(NCCCO)ncc2n2c(=O)c3ccccc3[nH]c12 | 13.5
CC1(C)Cc2cccc(OCC(=O)NC3CC3)c2O1 | 8.84
COCc1c(C(=O)OCC(=O)N2CCCC2=O)oc2ccccc12 | 17.5
C#CCn1c(=NC(=O)CSC(C)=O)sc2cc(F)ccc21 | 11.8
[Br-].c1ccc(-c2cn(-c3ccccc3)c3[n+]2CCS3)cc1 | 0.1
O=C(O)c1cccc(Cn2c(Cl)c(/C=N/NC(=O)c3cc4ccccc4cc3O)sc2=O)c1 | 13.1
O=C(CN1C(=O)CSc2ncccc21)Nc1ccccc1F | 10.8
CNC(=O)COC(=O)Cc1ccc(Cl)cc1 | 2.48
CC1=CN2C(=N)/C(=C/c3ccc(Sc4ccc(C)cc4)o3)C(=O)N=C2S1 | 13.7
COc1ccc(-n2c(Cn3nnc4ccccc43)nnc2SCC(=O)O)cc1 | 11.8
CC(=O)OC1c2ccccc2C(=O)N1Cc1ccccc1 (centres unmarked) | 12.1
CN1C2CCC1CC(OC(=O)c1c[nH]c3ccccc13)C2.Cl (centres unmarked) | -4.75

SMILES | hERG current change (%, negative = inhibition) at 1uM [%]
CCCOc1ccc(C(=O)C(CN2CCOCC2)c2ccccc2)cc1 (centres unmarked) | 2.75
CSCCC(NC(=O)c1ccccc1)C(=O)N1CC(C)OC(C)C1 (centres unmarked) | 2.34
COc1ccccc1NC(=S)NC(C)C(c1cccs1)N1CCOCC1 (centres unmarked) | 8.67
COc1c2c(nc3occc13)C(CC=C(C)C)(OC)C(OC(C)=O)CC2 (centres unmarked) | 12.6
COc1ccc(CC(=O)OCC(=O)c2ccc[nH]2)cc1 | 9.13
CCOc1ccccc1N(CC(=O)NC1CCCCC1)C(=O)CNC(=O)c1ccco1 | 17.9
CN(C)Cc1nc2c([nH]1)c(=O)n(C)c(=O)n2C | 1.78
N#CC1=C2SCC(O)(c3ccccc3)N2C(=O)CC1c1cccs1 (centres unmarked) | -13.3
Cc1ccc2[nH]c(=O)c(CN(CC3CCCO3)C(=O)c3cccs3)cc2c1 (centres unmarked) | 8.55
CCCCN1C(=O)/C(=C\c2ccco2)C(=O)N(CCc2ccccc2)C1=O | 13.3
CN1CCN(S(=O)(=O)c2ccc(SCCOc3ccccc3)nc2)CC1 | -16.4
COc1ccc(C2SCC(=O)Nc3c2c(=O)[nH]n3C2CCCCC2)cc1 (centres unmarked) | 13.7
Cc1cc(C)nc(N2CCN(S(=O)(=O)c3ccc(F)cc3)CC2)n1 | 15.4
COc1ccc(/C=C/C(=O)c2ccoc2)cc1 | 11.4
O=C1C=C(c2cc3ccccc3s2)C[C@@H](c2ccc(F)cc2)C1 | 2.12
COc1ccccc1NC(=O)Nc1ccnn1C1CCN(C(=O)c2cccnc2)CC1 | 2.73
Cc1ccc(C(=O)Nc2ccc(Oc3cccc(C(F)(F)F)c3)nc2)cc1 | 14
O=C(CSc1nnc2ccccn12)Nc1ccc2c(c1)OCO2 | 11.5
O=C(O)c1cccc2c1C(=O)N(C1CCCC1)C2 | 11.2
COc1ccccc1NS(=O)(=O)c1cc(NC(=O)c2cc(=O)[nH]c3ccccc23)ccc1N1CCOCC1 | 1.92
